Data as given in the BET-seq Pho4 binding data (Le et al. 2018).
The other results are listed elsewhere or left out. Values were computed here from the reads of four pooled replicates and scatter widely.

Target: T1, Pho4 (S. cerevisiae) (UniProt P07270)
T1 sequence: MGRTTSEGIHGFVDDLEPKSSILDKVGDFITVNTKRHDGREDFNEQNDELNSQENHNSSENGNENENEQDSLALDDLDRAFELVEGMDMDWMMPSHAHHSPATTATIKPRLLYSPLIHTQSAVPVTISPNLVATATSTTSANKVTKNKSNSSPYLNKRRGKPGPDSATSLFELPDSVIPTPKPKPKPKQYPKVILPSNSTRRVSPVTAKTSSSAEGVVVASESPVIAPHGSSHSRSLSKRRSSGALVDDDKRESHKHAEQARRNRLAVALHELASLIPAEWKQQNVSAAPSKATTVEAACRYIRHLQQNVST
Experiment: relative binding free energy (BET-seq); higher = weaker binding
Conditions: reference: library average

Sequence	relative binding free energy [kcal/mol]
TAGTTCACGTGTTGAT	0.28
GTAGGCACGTGGGACG	-0.18
GTGTACACGTGAGGTC	0.23
AGTGACACGTGGCGTG	-0.07
AATTGCACGTGGGTAT	-0.15
TGGATCACGTGGCGAG	0.03
ACGGTCACGTGAGTGG	0.09
TTTTTCACGTGATGGT	0.43
GGGGTCACGTGTCAAT	0.15
AGGGGCACGTGGGCTT	-0.29
GGGTGCACGTGCTAAT	0
TCGTGCACGTGGTTTT	0.04
TTTATCACGTGGTGGG	0.15
ATATCCACGTGGGTTT	-0.04
AAAGTCACGTGTTTAA	0.04
TTAATCACGTGTGTCA	0.15
TTACGCACGTGTGAAG	0.11
AGGGGCACGTGCTGGG	-0.28
AAAGGCACGTGTCTGG	-0.09
CGGGGCACGTGTGTGC	-0.27
TGCTTCACGTGTTTGT	0.2
AAATACACGTGTGGAG	0.15
GGGTACACGTGCTATT	0.16
AATTGCACGTGCTGGG	-0.08
AGGTACACGTGCTTGT	0.06

Sequence	relative binding free energy [kcal/mol]
GGTCCCACGTGAGTGG	0.11
AGGGTCACGTGGTTGT	0.12
AGGTTCACGTGTTATC	0.27
TGTATCACGTGGGAGG	0.05
TCTGCCACGTGTTTTT	0.12
TGGATCACGTGGTGGT	0.13
GAGGGCACGTGGTTCG	-0.15
TAGTTCACGTGGGGAT	0.24
ATAGTCACGTGACTGG	0.23
TCAGTCACGTGCGGTG	0.09
GGTTTCACGTGTCTTG	0.31
AATATCACGTGTGCGT	0.21
GGGGTCACGTGAAGAA	0.35
CTTGTCACGTGTAGAT	0.24
TAGGACACGTGGTAAG	-0.03
TGTTGCACGTGCAAGT	0.05
ATTGGCACGTGATGGT	-0.08
TATTGCACGTGTAGGG	0.08
AGGGACACGTGGTTGG	-0.01
ATTGCCACGTGATTGA	0.21
GGAGGCACGTGCATGT	-0.22
TGGCGCACGTGGTGTA	-0.24
AGGTCCACGTGTTGTT	0.03
CCGGGCACGTGGCGTA	-0.14
TATAGCACGTGTCGAG	-0.02

Sequence	relative binding free energy [kcal/mol]
CGAGGCACGTGGGAGA	-0.16
ACGTACACGTGGAGTG	0
GGAAGCACGTGTTTGA	-0.13
TAGGACACGTGTAGTG	0.03
TGTATCACGTGGCGGA	0.1
GGGCGCACGTGCGTTG	-0.19
TTGAACACGTGAGATT	0.16
TATTCCACGTGTCGGT	0.08
GTGTGCACGTGAGAAT	0.3
GTGTACACGTGTGCCG	0.06
GTAGGCACGTGGATAG	-0.17
AATGTCACGTGAAGGT	0.26
GTGGGCACGTGAGCCG	-0.01
ATGTTCACGTGAGTCT	0.43
GTTTACACGTGTAGGA	0.15
TTGATCACGTGTGAGA	0.2
TATTACACGTGAAGAT	0.26
TCGTACACGTGGAGGT	0.03
TATATCACGTGTGCTG	0
TGGATCACGTGCATTG	0.2
GTCATCACGTGTATTG	0.21
TTAGGCACGTGTTGTG	-0.04
TTTTGCACGTGCTTTC	-0.01
ATGCTCACGTGGGATT	0.08
GTTGTCACGTGTGGCC	0.05

Sequence	relative binding free energy [kcal/mol]
GTGATCACGTGGCATG	-0.1
CTTGGCACGTGGGACT	-0.15
GGCGTCACGTGGTGGC	0.08
TGTTTCACGTGAATAA	0.42
TCGCGCACGTGCGGGG	-0.1
AAGTTCACGTGGTTAG	0.23
CGTGTCACGTGGGACA	0.11
GGAGGCACGTGCAGTG	-0.16
TATTTCACGTGACGTA	0.33
ACTTACACGTGGAGGG	0.06
GGGGCCACGTGTGCTG	0.01
CGGGACACGTGTTGGA	0.17
TATCTCACGTGGGTGA	0.12
ATCGTCACGTGGTGGG	0.04
GTAGGCACGTGGTACA	-0.14
TTAGTCACGTGTTGAT	0.03
TTTGACACGTGGCATA	-0.18
AAGTGCACGTGGATGA	-0.07
GTAGTCACGTGATTGC	0.29
TGGGTCACGTGGAGCG	0.06
TCGGGCACGTGTTGGG	0.03
GTAGGCACGTGTTCTG	0.01
CATTACACGTGTTGTG	0.02
TAAAGCACGTGTAGTT	0.08
AAGTTCACGTGTGGTC	0.43

Sequence	relative binding free energy [kcal/mol]
AAATTCACGTGTGGTG	0.37
TGTGTCACGTGTAATC	0.23
TTTGGCACGTGTCAGG	-0.13
GTCTGCACGTGGGGCG	-0.11
GTTTTCACGTGTGCCA	0.33
TCTTTCACGTGAGGCT	0.3
GTTTGCACGTGGTAAG	0.05
GTTTTCACGTGTTTAG	0.3
TATTTCACGTGGATCT	0.26
TGCTTCACGTGATTTG	0.39
TGGGACACGTGACTTG	0.35
GGTGTCACGTGGCGAG	0.08
GTCCTCACGTGGTAGG	0.21
TTTTGCACGTGACTGT	0.16
ATGCTCACGTGCGGGT	0.02
TTTGACACGTGTGGAT	0.03
GGTTTCACGTGGGACA	0.3
AGTAGCACGTGGGAGC	-0.14
TTTTCCACGTGGTGAC	0.29
AATGGCACGTGGTGTT	-0.13
TATTACACGTGGCTGG	0.07
ATACTCACGTGTTTGT	0.14
GGCACCACGTGTGGGT	0
TGTGGCACGTGGTTAG	-0.07
TGTGTCACGTGAAGAG	0.04

Sequence	relative binding free energy [kcal/mol]
CATTGCACGTGTGGTG	0.2
TCTGGCACGTGGTCTG	-0.16
AGTGTCACGTGGATCA	0.01
ATCGTCACGTGAGATT	0.28
GGGCACACGTGTTAGG	0.15
CATAACACGTGATGGT	0.33
TGGTACACGTGCGGTT	0.08
TAGGACACGTGATCTT	0.16
GTTAGCACGTGGCGGT	-0.05
GTTGGCACGTGGTCCG	-0.23
TGGTCCACGTGATATT	0.2
GCGGGCACGTGACGTG	0.01
GTTACCACGTGTGAGT	0.15
TTGGCCACGTGAGGGA	0.05
GTCGTCACGTGGGACT	0.06
TTCTCCACGTGTGGTG	-0.03
AGTGTCACGTGGCTGC	-0.09
GGTTTCACGTGCGGTG	0.19
TGTAGCACGTGTAGCG	-0.01
GAGAGCACGTGTAAGG	0.12
TAGTTCACGTGAGAAT	0.46
